# From the supplement of paper PMC3334620
# Whole data set: some 33,000 sequences, median “E-score (-0.5 to 0.5)” near -0.011, cut for the highest 2% near 0.28. The list shows a part of the results.
# Molecular target: T1, Gcr1 (UniProt P07261)
# T1 sequence: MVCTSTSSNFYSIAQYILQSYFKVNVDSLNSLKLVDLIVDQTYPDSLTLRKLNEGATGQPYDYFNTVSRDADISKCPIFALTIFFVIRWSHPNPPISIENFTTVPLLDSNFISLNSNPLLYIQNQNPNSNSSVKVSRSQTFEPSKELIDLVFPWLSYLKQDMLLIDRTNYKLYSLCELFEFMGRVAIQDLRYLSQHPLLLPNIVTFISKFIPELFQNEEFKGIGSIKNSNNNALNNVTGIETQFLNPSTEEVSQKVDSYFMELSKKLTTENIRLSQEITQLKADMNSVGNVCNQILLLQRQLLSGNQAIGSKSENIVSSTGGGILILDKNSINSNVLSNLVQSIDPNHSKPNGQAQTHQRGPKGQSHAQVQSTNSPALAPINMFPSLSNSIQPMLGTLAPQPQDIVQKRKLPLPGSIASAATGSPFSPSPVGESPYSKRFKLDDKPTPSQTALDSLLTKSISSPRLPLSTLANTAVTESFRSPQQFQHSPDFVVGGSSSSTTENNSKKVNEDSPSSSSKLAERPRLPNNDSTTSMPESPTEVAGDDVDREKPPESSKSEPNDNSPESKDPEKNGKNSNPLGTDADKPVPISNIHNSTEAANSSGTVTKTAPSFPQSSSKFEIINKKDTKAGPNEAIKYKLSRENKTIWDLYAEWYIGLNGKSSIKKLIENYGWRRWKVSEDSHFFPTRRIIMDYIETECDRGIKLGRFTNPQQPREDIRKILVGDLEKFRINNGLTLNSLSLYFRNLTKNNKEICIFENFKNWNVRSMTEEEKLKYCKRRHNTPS
# Assay: PBM E-score (8-mer binding enrichment) (E-score (-0.5 to 0.5)); higher = stronger / more preferred TF binding; most listed sequences are background and not binding sites
# Details: protein concentration: 100 nM; construct: GST-full length
# Procedure: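 Universal 'all 10-mer' protein binding microarrays (Agilent AMADID 015681) probed with GST-tagged S. cerevisiae TFs (full-length or DBD) made by in vitro transcription/translation (PURExpress), about 100-200 nM. Bound TF was detected with fluorescent anti-GST. Each ungapped 8-mer (which stands for itself and its reverse complement) is scored by the PBM enrichment score (E-score), a modified Wilcoxon-Mann-Whitney statistic from -0.5 to +0.5, computed with the Universal PBM Analysis Suite. Scale: above 0.35 generally sequence-specific binding.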
row,Sequence,PBM E-score
1,AGGTTGCC,0.28
2,AGGCACCT,0.16
3,CTCCGTCA,-0.278
4,AGTGGGTC,0.222
5,AGCGCAAG,-0.0482
6,GTAAATGA,-0.0267
7,AAAGCTCG,-0.137
8,GGTCTACA,-0.0646
9,ATCGGTCG,-0.0293
10,ACTAATAT,0.149
11,AACGCAAC,0.00489
12,GATGTAGA,0.087
13,ATTCGGAC,-0.0393
14,GGCACCAA,0.335
15,GGTCACTA,-0.126
16,GTTGGTGA,-0.0415
17,ATTTGAGG,0.0294
18,CATATGGC,0.00958
19,ACATGAAA,-0.18
20,CAGATGGC,-0.0396
21,CGGGACAA,-0.118
22,AATTACAT,0.0891
23,GGCTCCGA,0.136
24,TGCGACCA,0.166
25,AAATGTGC,0.00773

row,Sequence,PBM E-score
1,AATTCAGT,0.241
2,AATACGCT,0.0181
3,AAGAACCA,0.13
4,CAGGGAAC,0.00984
5,AGCCAAAG,-0.152
6,AATTAAGG,0.118
7,CATTCGAG,-0.284
8,TCTCGGAA,0.0498
9,CGTGCAGA,-0.00419
10,CCGTGTGA,-0.063
11,CAACTTGA,0.0873
12,ATGGGGGA,-0.186
13,AAAGAAGT,0.0878
14,ACTGAGCA,0.131
15,AGATGGAC,0.224
16,GTCGATAA,-0.00243
17,ATTCGGTA,0.0533
18,ACGCACGG,0.00066
19,CAGGTGCC,0.25
20,GACTCATC,-0.124
21,ACAGGAAG,0.455
22,GAAGAACA,-0.136
23,AAACCTAA,0.0813
24,ACACAGCT,-0.243
25,TAGGTGCA,-0.174

row,Sequence,PBM E-score
1,CCAACAAA,-0.0204
2,GAAGATTA,-0.0115
3,AACGAATT,0.0678
4,TCATCACA,-0.0733
5,CCAGAGAC,-0.0679
6,AGTTGACC,-0.106
7,GATTTCTA,-0.00526
8,CGACGGTA,-0.073
9,CATTGCAG,-0.153
10,GTCAAGGA,0.0238
11,ATAGCTAG,-0.0392
12,CGAGAGGA,-0.113
13,GCTAACCC,-0.243
14,CCCAGCAA,0.174
15,CGCAACCA,0.147
16,CAACGCTA,0.0062
17,CTTTGGGC,0.00906
18,AATGCGCT,0.195
19,ACGAATGG,0.111
20,CGCGGCCG,-0.197
21,GTGCTTCA,-0.102
22,ACAGTTCC,0.0983
23,AGTATAGA,-0.123
24,AATGTACG,-0.105
25,CCTTCTAC,0.0671

row,Sequence,PBM E-score
1,AAGACAAT,-0.0611
2,CGGCGGAC,-0.0471
3,CGCCAGCC,-0.117
4,ACACTGGC,0.16
5,GGGAAGCA,0.0216
6,CTTCTTGC,0.0175
7,ACGCCCCA,0.0841
8,TACAGAGA,-0.0176
9,CGTTCCAG,-0.008
10,ACAATAAG,0.117
11,CAAAAAAC,0.191
12,GACAAACC,-0.0625
13,ATCTCGGC,-0.0184
14,GCCCATTA,0.00809
15,AATGCCCA,-0.0413
16,ACTTGGGG,0.0493
17,GCAACTGC,0.0273
18,CCAGAGAA,0.128
19,AGCCGGTC,0.0351
20,CCTCTCCA,-0.11
21,CAGAATGC,0.0822
22,TCACACCA,-0.135
23,GACGACTA,-0.195
24,ACACTATC,-0.0774
25,GCTGTTTA,0.0955

row,Sequence,PBM E-score
1,AAATTCCG,0.108
2,TGCCGGAA,0.145
3,GATCCACA,0.18
4,TAAACTAA,0.0517
5,CGAAGAAA,-0.0515
6,AGTGATCC,-0.0127
7,AAATGTAC,-0.0111
8,ACGAGTCA,-0.18
9,CATAATTC,0.0959
10,ACGGGTGA,-0.212
11,CGTCTTCA,0.143
12,GCCCACGC,-0.252
13,CCGAAACG,0.012
14,CCAAGAGC,0.0143
15,ATAGGCTC,0.0169
16,GTCTTAAC,-0.00039
17,CAATTTAC,0.0643
18,CCCCAGTA,0.0644
19,CCGGGAGA,0.0477
20,CCGAGCAA,-0.208
21,CAGATAGA,0.0277
22,CCGCACCA,0.0661
23,CCGTGGTC,-0.067
24,CGAGAACA,-0.0497
25,GATATGCC,-0.171

row,Sequence,PBM E-score
1,CGTAGTGC,-0.154
2,ACTAGATG,0.173
3,CGGTGTCA,-0.102
4,CTTATAAG,-0.0238
5,GAATGAAA,0.167
6,TATAAGAA,0.261
7,CGGGTGAG,-0.163
8,ATGCTCTA,-0.0783
9,AATTTGTC,-0.00767
10,CTTTTCGC,0.0761
11,TCAAAACA,0.0365
12,TCCGACAA,-0.0648
13,CCTGCCAC,0.0404
14,ATCCGCAA,0.12
15,AACGTAGA,-0.106
16,CTCTTGCC,-0.053
17,AGCTAAGC,-0.17
18,CAACTCCG,0.0619
19,CTCCGACC,-0.127
20,AACGGGTG,0.0615
21,ACCCGCTG,-0.068
22,CCCCGGCG,-0.0578
23,AACACTCC,-0.0243
24,AAAGCTCC,-0.0149
25,GCTTAATA,0.101

row,Sequence,PBM E-score
1,ATGCCGTC,-0.126
2,ATATTTCG,0.216
3,AAGTATGC,-0.0568
4,GCTTACCC,-0.205
5,AAACGGGC,0.00768
6,TCACTCAA,-0.119
7,GATGTAAC,-0.0496
8,GATGGGAC,-0.113
9,ATTCGTTG,0.039
10,CATTCGAA,-0.00054
11,ATGGTCTG,-0.104
12,GTGTAGCA,-0.141
13,ACCCAAAG,0.0084
14,GGAAGGCC,0.0184
15,GTGCAAAC,-0.129
16,CATATGCA,-0.0913
17,CCTGCTTC,-0.023
18,CCTGTCCG,-0.189
19,CGGGAGCC,0.337
20,CCAGAAAG,0.124
21,CACCCGGG,0.0663
22,ACATATTG,0.0382
23,AAGGCAGC,0.189
24,TACGAAGA,-0.0501
25,AGCTTACT,-0.00812

row,Sequence,PBM E-score
1,CAAGAGTG,0.00507
2,CGTCAACA,-0.0251
3,AGGTGATA,-0.087
4,AGCTTAGA,-0.232
5,CGATGGTC,-0.0277
6,AGGCACCC,0.284
7,CCGGGCAC,0.264
8,ATCAATCG,0.0139
9,CAGCAACA,0.0034
10,AGCTCTTC,-0.00577
11,ATCGACTG,-0.124
12,CTCCCCCC,-0.25
13,TATTTACA,0.0799
14,ATTGTGCA,-0.122
15,CTCTCAAG,0.118
16,GAAGTCAC,0.00882
17,GGGCCCGA,0.121
18,CATAATGA,0.0644
19,ATTCGGAG,0.129
20,CCTTGTAG,-0.154
21,GACGACGC,0.00612
22,CGTGTCAC,-0.0918
23,CACGTACC,-0.0898
24,ACCAGCCA,-0.0593
25,ATCGGCCA,-0.109

row,Sequence,PBM E-score
1,ACCCACTC,0.0683
2,CCCCAGAG,-0.0817
3,AATTGACT,0.0553
4,CAGGACTC,0.0853
5,AAAGGTGT,-0.0119
6,CCTTATTA,0.0286
7,AAGGCATT,-0.231
8,ACCTCCCA,-0.236
9,ATGTTCTA,0.0526
10,AAACTTGC,0.0797
11,AGCGGTCG,-0.105
12,ATACGTCA,0.0524
13,CAACTCGG,0.14
14,TCCATTCA,0.131
15,AGAGCAGC,0.0483
16,GACTGACC,-0.258
17,ACCCACAA,0.117
18,CTAGCTGC,0.161
19,CAAGTTTC,-0.0521
